Where “and” joins values, the source holds several entries; their conditions need not be identical. Equal values may be shown once. Out of some 270,000 compounds screened, about 5,800 (2.1%) were called active. Inconclusive results, whose numbers are uncertain, are shown with a selection of clear calls. The call rests on the fitted dose curve; in most records, active means well fitted inhibition curve with a large enough effect; inconclusive means small, poorly fitted or top-dose-only effect; inactive means flat fitted curve, though single readings scatter. A potency beside an inconclusive call is a rough fit, not a confirmed value.
Biological target: Microtubule-associated protein tau (Homo sapiens) (UniProt P10636)
Experiment: qHTS for Inhibitors of Tau Fibril Formation, Thioflavin T Binding; further: nearly all actives have a fitted effect of over 55% in size
Conditions: recombinant tau K18 P301L (four-repeat tau fragment), heparin-induced fibrillization, ThT fluorescence; series mostly up to 57.4 µM
Outline: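 In this qHTS, human K18 P301L tau is incubated with compound and heparin for 6 hr at 37 C, and Thioflavin T fluorescence then reports fibril load.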
Potency means the concentration at half of the fitted maximal effect; tags describe the fitted curve by direction and shape.

UniProt P10636, sequence (P10636 whole entry, looked up): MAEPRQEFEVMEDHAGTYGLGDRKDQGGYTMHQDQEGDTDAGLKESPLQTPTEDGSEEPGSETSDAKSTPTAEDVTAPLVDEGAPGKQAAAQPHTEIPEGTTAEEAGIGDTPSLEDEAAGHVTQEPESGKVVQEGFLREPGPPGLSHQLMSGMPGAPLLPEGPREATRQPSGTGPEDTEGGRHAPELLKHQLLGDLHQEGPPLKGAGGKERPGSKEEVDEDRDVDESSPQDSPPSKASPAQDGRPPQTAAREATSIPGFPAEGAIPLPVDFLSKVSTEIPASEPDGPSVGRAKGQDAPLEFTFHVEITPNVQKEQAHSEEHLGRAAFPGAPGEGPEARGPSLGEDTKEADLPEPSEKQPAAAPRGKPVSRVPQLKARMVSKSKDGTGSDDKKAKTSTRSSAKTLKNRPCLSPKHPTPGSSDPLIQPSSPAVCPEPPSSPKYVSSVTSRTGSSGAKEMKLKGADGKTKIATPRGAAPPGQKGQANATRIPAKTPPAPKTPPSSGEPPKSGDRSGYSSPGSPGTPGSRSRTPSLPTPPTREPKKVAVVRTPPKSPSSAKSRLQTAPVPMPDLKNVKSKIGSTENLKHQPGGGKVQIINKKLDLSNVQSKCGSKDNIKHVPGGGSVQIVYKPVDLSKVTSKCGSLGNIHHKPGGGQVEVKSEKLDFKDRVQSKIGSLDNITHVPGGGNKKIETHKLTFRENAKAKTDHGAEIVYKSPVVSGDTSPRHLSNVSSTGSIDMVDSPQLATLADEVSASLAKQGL

SMILES | Potency
COc1ccc(OCCCC(=O)Nc2nc(-c3ccccn3)cs2)cc1 | inconclusive: 3.55 µM [inhibitor, partial curve]
O=C(O)c1ccc(/C=N/n2cc(-c3ccccc3)[nH]c2=S)cc1 | inconclusive: 20 µM [inhibitor, partial curve]
N#Cc1ccc(-c2ccc3c(c2)OCO3)nc1SCC(=O)OCc1ccccc1 | inconclusive: 1.58 µM [inhibitor, full curve]
CCCn1c(SCC(=O)c2cc(C)ccc2C)n[nH]c1=O | inconclusive: 39.8 µM [inhibitor, single point]
Cc1ccc(C(=O)c2nocc2C(=O)c2cccs2)cc1 | inactive
CCc1nnc(NS(=O)(=O)c2ccc(NC(=S)NC(=O)/C=C/c3ccccc3)cc2)s1 | inconclusive: 14.1 µM [inhibitor, partial curve]
Cc1ccc(N=Nc2ccc(O)c(P(=O)(c3ccccc3)c3ccccc3)c2)cc1 | inconclusive: 11.2 µM [inhibitor, partial curve]
CCN(CC)c1ccc(C2Nc3cccc4cccc(c34)N2)c(O)c1 | active: 15.8 µM
COCCN1C=C2C(=O)C(C)(OC(=O)c3cccs3)C(=O)C=C2C=C1CCCC(=O)OC (configuration not stated) | inconclusive: 14.1 µM [inhibitor, partial curve]
Clc1ccc(C2=NNC(=NCc3ccc4c(c3)OCO4)SC2)cc1 | inconclusive: 3.55 µM [inhibitor, partial curve]
Cc1ccc(-c2cc(-c3ccco3)c3c(N)c(C(=O)NN)oc3n2)cc1 | active: 10 µM
CC(=O)O[C@H]1C[C@@]2(C)[C@@H](C[C@@H](O)[C@H]3[C@@]4(C)CC[C@@H](O)[C@@H](C)C4CC[C@@]32C)/C1=C(\CCC=C(C)C)C(=O)O (some centres not stated) | inconclusive: 35.5 µM [inhibitor, single point]
NNC(=O)COc1cccc2cccnc12 | inconclusive: 35.5 µM [inhibitor, partial curve]
COc1ccc(C(=O)c2ccc(N3CCOCC3)c([N+](=O)[O-])c2)cc1 | inconclusive: 10 µM [inhibitor, partial curve]
Cc1cccc(NC2=C(C#N)C(=O)NC3(CCCC3)S2)c1 | inconclusive: 39.8 µM [inhibitor, single point]
Cc1ccc(CNC(=O)[C@H]2C[C@@H]2[C@H](NP(=O)(c2ccccc2)c2ccccc2)c2ccccc2)o1 | inconclusive: 794 nM [inhibitor, full curve, poor fit] and inconclusive: 17.8 µM [inhibitor, partial curve]
CCOc1ccc2nc(SC3CC(=O)N(c4ccc(OC)cc4OC)C3=O)sc2c1 (configuration not stated) | inconclusive: 8.91 µM [inhibitor, partial curve]
CCn1c(SCC(=O)N/N=C/c2c[nH]c3ccccc23)nnc1-c1ccc(Cl)cc1 | inconclusive: 28.2 µM [inhibitor, partial curve]
c1ccc(Cn2nnc3c(N4CCc5ccccc5C4)ncnc32)cc1 | inconclusive: 39.8 µM [inhibitor, single point]
O=C(/C=C/c1ccccc1Cl)c1cccnc1 | inconclusive: 14.1 µM [inhibitor, partial curve, poor fit]
CCCCC(C(=O)N/N=C/c1ccccn1)C(=O)N/N=C/c1ccccn1 | inactive

SMILES | Potency
CSCCC(NC(C)=O)C(=O)Oc1ccc2c3c(c(=O)oc2c1)CCCC3 (configuration not stated) | inconclusive: 22.4 µM [inhibitor, single point]
Cc1cccc(NCc2nc3ccccc3n2Cc2ccccc2)c1 | inconclusive: 17.8 µM [inhibitor, partial curve]
CCc1nc2ccccc2c(C(=O)OCC(=O)NC(=O)c2cccn2C)c1C | inconclusive: 11.2 µM [inhibitor, partial curve]
CCOc1ccccc1NC(=O)CN(c1ccc(OC)cc1)S(=O)(=O)c1c(C)noc1C | inactive
Cc1cccc(C(=O)Nc2c(-c3ccc(F)cc3)nc3ccccn23)c1 | inactive
CCOC(=O)Cc1csc(NC(=S)NC(=O)c2ccc(C)cc2)n1 | inactive
Cc1ccc(Cl)cc1NC(=O)C[n+]1ccc(Cc2ccc([N+](=O)[O-])cc2)cc1 | inconclusive: 15.8 µM [inhibitor, partial curve]
CN1C/C(=C\c2ccc(N3CCOCC3)cc2)C(=O)/C(=C/c2ccc(N3CCOCC3)cc2)C1 | active: 0.631 µM
COc1cccc(-c2ccc3c(N)c(C(=O)Nc4ccc(Cl)cc4F)sc3n2)c1 | inconclusive: 1 µM [inhibitor, full curve]
COc1ccc(OC)c(NC(=O)Cc2c(C(=O)O)[nH]c3ccc(Cl)cc23)c1 | inconclusive: 10 µM [inhibitor, partial curve]
CCOc1nc(NC(=O)NS(=O)(=O)Oc2cccc(F)c2)nc(-c2ccccc2)n1 | inactive
CC1=CC(=O)C=C(C)C1=NOS(=O)(=O)c1ccccc1 | active: 14.1 µM
CCCCCCCCCCn1c2c(c(=N)c3c1CCC3)CCC2 | inconclusive: 12.6 µM [inhibitor, partial curve, poor fit]
O=[N+]([O-])c1cccc(Nc2c3ccccc3nc3ccccc23)c1 | inactive
CCOC(=O)c1c(N2C(=O)Nc3ccccc3N2O)n[nH]c1-c1cccc(OC)c1 | inconclusive: 1.26 µM [inhibitor, full curve, poor fit]
CC(C)Cn1c(=O)c2sccc2n2c(CCCC(=O)NCC(C)c3ccccc3)nnc12 (configuration not stated) | inactive
CCOC(=O)c1c(C)[nH]c(C2=NNC(=NC(C)COC)SC2)c1C (configuration not stated) | inconclusive: 22.4 µM [inhibitor, partial curve]
CC1(C(=O)CSc2nc3ccccc3s2)CCC(=O)O1 (configuration not stated) | inconclusive: 35.5 µM [inhibitor, partial curve]
CCOc1ccccc1-c1nc(-c2cc3ccc(C)cc3[nH]c2=O)no1 | inconclusive: 7.08 µM [inhibitor, partial curve]
Cc1c(Cl)c(-c2n[nH]c(=S)n2-c2ccccc2)nn1C | inactive
BrC(=C\c1ccccc1)/C=N/N1CCN(Cc2ccccc2)CC1 | inconclusive: 17.8 µM [inhibitor, single point]

Source: PubChem BioAssay AID1460 (National Center for Advancing Translational Sciences (NCATS), 2008)
